# Experimental data: publication PMC9911399, “Two distinct binding modes provide the RNA-binding protein RbFox with extraordinary sequence specificity”
# Numbering of substitutions follows the chain as printed; changes in the protein carry UniProt numbers. This is one part of the list.
# T1: RBFOX1 RRM RbFoxmut (Fox-RRM*) (Homo sapiens, UniProt Q9NWB1 109-208, R118D;E147R;N151S;E152T)
# T1 sequence: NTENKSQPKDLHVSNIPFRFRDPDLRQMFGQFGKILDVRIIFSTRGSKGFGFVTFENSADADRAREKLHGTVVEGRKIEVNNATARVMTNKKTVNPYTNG
# B1: CCCCAGC (DNA:RNA)
# RNA: GGGAGACCGGAAUUCAGAUUGUCCCCCCAGCUUAAAUCCCGUCGUAGCCACCA
# DNA 1: CAATCTGAATTCCGGTCTCCC
# DNA 2: TGGTGGCTACGACGGGATT
# B2: CGGCGUC (DNA:RNA)
# RNA: B1 RNA with C26G, C27G, A29G, G30U
# DNA 1: CAATCTGAATTCCGGTCTCCC
# DNA 2: TGGTGGCTACGACGGGATT
# B3: AUCAAUG (DNA:RNA)
# RNA: B1 RNA with C25A, C26U, C28A, G30U, C31G
# DNA 1: CAATCTGAATTCCGGTCTCCC
# DNA 2: TGGTGGCTACGACGGGATT
# B4: CGUUGAA (DNA:RNA)
# RNA: B1 RNA with C26G, C27U, C28U, A29G, G30A, C31A
# DNA 1: CAATCTGAATTCCGGTCTCCC
# DNA 2: TGGTGGCTACGACGGGATT
# B5: GUCUAGG (DNA:RNA)
# RNA: B1 RNA with C25G, C26U, C28U, C31G
# DNA 1: CAATCTGAATTCCGGTCTCCC
# DNA 2: TGGTGGCTACGACGGGATT
# B6: UGGCGGA (DNA:RNA)
# RNA: B1 RNA with C25U, C26G, C27G, A29G, C31A
# DNA 1: CAATCTGAATTCCGGTCTCCC
# DNA 2: TGGTGGCTACGACGGGATT
# B7: UCAAGAG (DNA:RNA)
# RNA: B1 RNA with C25U, C27A, C28A, A29G, G30A, C31G
# DNA 1: CAATCTGAATTCCGGTCTCCC
# DNA 2: TGGTGGCTACGACGGGATT
# B8: ACGAAAU (DNA:RNA)
# RNA: B1 RNA with C25A, C27G, C28A, G30A, C31U
# DNA 1: CAATCTGAATTCCGGTCTCCC
# DNA 2: TGGTGGCTACGACGGGATT
# B9: GCAAAUG (DNA:RNA)
# RNA: B1 RNA with C25G, C27A, C28A, G30U, C31G
# DNA 1: CAATCTGAATTCCGGTCTCCC
# DNA 2: TGGTGGCTACGACGGGATT
# B10: GGCAGGU (DNA:RNA)
# RNA: B1 RNA with C25G, C26G, C28A, A29G, C31U
# DNA 1: CAATCTGAATTCCGGTCTCCC
# DNA 2: TGGTGGCTACGACGGGATT
# B11: AGGCCCA (DNA:RNA)
# RNA: B1 RNA with C25A, C26G, C27G, A29C, G30C, C31A
# DNA 1: CAATCTGAATTCCGGTCTCCC
# DNA 2: TGGTGGCTACGACGGGATT
# B12: GUCUGCG (DNA:RNA)
# RNA: B1 RNA with C25G, C26U, C28U, A29G, G30C, C31G
# DNA 1: CAATCTGAATTCCGGTCTCCC
# DNA 2: TGGTGGCTACGACGGGATT
# B13: AUGGUGG (DNA:RNA)
# RNA: B1 RNA with C25A, C26U, C27G, C28G, A29U, C31G
# DNA 1: CAATCTGAATTCCGGTCTCCC
# DNA 2: TGGTGGCTACGACGGGATT
# B14: CAUCAAA (DNA:RNA)
# RNA: B1 RNA with C26A, C27U, G30A, C31A
# DNA 1: CAATCTGAATTCCGGTCTCCC
# DNA 2: TGGTGGCTACGACGGGATT
# B15: CUUGACC (DNA:RNA)
# RNA: B1 RNA with C26U, C27U, C28G, G30C
# DNA 1: CAATCTGAATTCCGGTCTCCC
# DNA 2: TGGTGGCTACGACGGGATT
# B16: UAUAUUU (DNA:RNA)
# RNA: GGGAGACCGGAAUUCAGAUUGUCCUAUAUUUUUAAAUCCCGUCGUAGCCACCA
# DNA 1: CAATCTGAATTCCGGTCTCCC
# DNA 2: TGGTGGCTACGACGGGATT
# B17: GACAGGG (DNA:RNA)
# RNA: B1 RNA with C25G, C26A, C28A, A29G, C31G
# DNA 1: CAATCTGAATTCCGGTCTCCC
# DNA 2: TGGTGGCTACGACGGGATT
# B18: UUUUCAC (DNA:RNA)
# RNA: B16 RNA with A26U, A28U, U29C, U30A, U31C
# DNA 1: CAATCTGAATTCCGGTCTCCC
# DNA 2: TGGTGGCTACGACGGGATT
# B19: UGGGCUA (DNA:RNA)
# RNA: B16 RNA with A26G, U27G, A28G, U29C, U31A
# DNA 1: CAATCTGAATTCCGGTCTCCC
# DNA 2: TGGTGGCTACGACGGGATT
# B20: GGGUAGA (DNA:RNA)
# RNA: B1 RNA with C25G, C26G, C27G, C28U, C31A
# DNA 1: CAATCTGAATTCCGGTCTCCC
# DNA 2: TGGTGGCTACGACGGGATT
# B21: CAGCUGU (DNA:RNA)
# RNA: B1 RNA with C26A, C27G, A29U, C31U
# DNA 1: CAATCTGAATTCCGGTCTCCC
# DNA 2: TGGTGGCTACGACGGGATT
# B22: AUUAUUC (DNA:RNA)
# RNA: B16 RNA with U25A, A26U, U31C
# DNA 1: CAATCTGAATTCCGGTCTCCC
# DNA 2: TGGTGGCTACGACGGGATT
# B23: UAGUACA (DNA:RNA)
# RNA: B16 RNA with U27G, A28U, U29A, U30C, U31A
# DNA 1: CAATCTGAATTCCGGTCTCCC
# DNA 2: TGGTGGCTACGACGGGATT
# B24: CAUUGAA (DNA:RNA)
# RNA: B16 RNA with U25C, A28U, U29G, U30A, U31A
# DNA 1: CAATCTGAATTCCGGTCTCCC
# DNA 2: TGGTGGCTACGACGGGATT
# B25: AUACCAG (DNA:RNA)
# RNA: B1 RNA with C25A, C26U, C27A, A29C, G30A, C31G
# DNA 1: CAATCTGAATTCCGGTCTCCC
# DNA 2: TGGTGGCTACGACGGGATT
# B26: AAAUGUU (DNA:RNA)
# RNA: B16 RNA with U25A, U27A, A28U, U29G
# DNA 1: CAATCTGAATTCCGGTCTCCC
# DNA 2: TGGTGGCTACGACGGGATT
# B27: AACGAAC (DNA:RNA)
# RNA: B1 RNA with C25A, C26A, C28G, G30A
# DNA 1: CAATCTGAATTCCGGTCTCCC
# DNA 2: TGGTGGCTACGACGGGATT
# B28: GCCGACA (DNA:RNA)
# RNA: B1 RNA with C25G, C28G, G30C, C31A
# DNA 1: CAATCTGAATTCCGGTCTCCC
# DNA 2: TGGTGGCTACGACGGGATT
# B29: GGCCAAC (DNA:RNA)
# RNA: B1 RNA with C25G, C26G, G30A
# DNA 1: CAATCTGAATTCCGGTCTCCC
# DNA 2: TGGTGGCTACGACGGGATT
# B30: AUUGCCU (DNA:RNA)
# RNA: B16 RNA with U25A, A26U, A28G, U29C, U30C
# DNA 1: CAATCTGAATTCCGGTCTCCC
# DNA 2: TGGTGGCTACGACGGGATT
# B31: GGUCAGA (DNA:RNA)
# RNA: B1 RNA with C25G, C26G, C27U, C31A
# DNA 1: CAATCTGAATTCCGGTCTCCC
# DNA 2: TGGTGGCTACGACGGGATT
# Biological target: T1, RBFOX1 RRM RbFoxmut (Fox-RRM*)
# Experiment: EMSA; HiTS-Eq, 1 nM pool, 10 min; buffer printed only for the single-RNA assays: 10 mM Tris pH 7.5, 150 mM NaCl, 3.4 mM EDTA, 0.001% NP-40, 30 C
# Conditions: tags: His6 N-terminal (pET28a); label: 5' 32P
# Outline: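 Purified RbFox RRM (wild type or mutant) was equilibrated for 10 min in 50 µL with 1 nM of a 5′-radiolabelled pool of RNA with 7 randomized nucleotides, its flanks annealed to DNA oligonucleotides, across increasing protein concentrations. Free RNA was separated by 8% native PAGE, excised, reverse-transcribed, PCR-barcoded and sequenced on an Illumina HiSeq 2500. Relative association constants came from read-count changes of each variant against the control reaction, normalised to the cognate motif.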
row,Binder,binding signal
1,B1,0.1 KA relative to UGCAUGU
2,B2,0.152 KA relative to UGCAUGU
3,B3,0.107 KA relative to UGCAUGU
4,B4,0.133 KA relative to UGCAUGU
5,B5,0.103 KA relative to UGCAUGU
6,B6,0.0963 KA relative to UGCAUGU
7,B7,0.0954 KA relative to UGCAUGU
8,B8,0.0795 KA relative to UGCAUGU
9,B9,0.111 KA relative to UGCAUGU
10,B10,0.0607 KA relative to UGCAUGU
11,B11,0.079 KA relative to UGCAUGU
12,B12,0.171 KA relative to UGCAUGU
13,B13,0.154 KA relative to UGCAUGU
14,B14,0.0999 KA relative to UGCAUGU
15,B15,0.0595 KA relative to UGCAUGU
16,B16,0.109 KA relative to UGCAUGU

row,Binder,binding signal
1,B17,0.0654 KA relative to UGCAUGU
2,B18,0.0745 KA relative to UGCAUGU
3,B19,0.141 KA relative to UGCAUGU
4,B20,0.134 KA relative to UGCAUGU
5,B21,0.123 KA relative to UGCAUGU
6,B22,0.108 KA relative to UGCAUGU
7,B23,0.073 KA relative to UGCAUGU
8,B24,0.141 KA relative to UGCAUGU
9,B25,0.122 KA relative to UGCAUGU
10,B26,0.115 KA relative to UGCAUGU
11,B27,0.0568 KA relative to UGCAUGU
12,B28,0.0398 KA relative to UGCAUGU
13,B29,0.0537 KA relative to UGCAUGU
14,B30,0.108 KA relative to UGCAUGU
15,B31,0.0741 KA relative to UGCAUGU
